For this data set the following is noted: Homo sapiens; pH 7.5; 23 °C; GdnHCl; CD; Tris 0.2 M; reversible: yes.

Results on 1 substance are retold here after FireProtDB (doi:10.1093/protein/5.6.519).

On to Insulin wild type (letters omitted), for which the “denaturant midpoint (higher = more stable)” value stood at 5.1 M and the unfolding free energy came to 4.4 kcal/mol.
